Experimental data published in US20070128217A1.

B1: SC03-014 (scFv)
scFv: AMAEVQLVESGGGLVQPGGSLRLSCAASGFTFSDHYMDWVRQAPGKGLEWVGRTRNKANSYTTEYAASVKGRFTISRDDSKNSLYLQMNSLKTEDTAVYYCARGISPFYFDYWGQGTLVTVSSGGGGSGGGGSGGGGSEIELTQSPSSLSASVGDRVTIT[about 80 residues left out here]FGQGTKVEIKRAAA
B2: SC03-009 (scFv)
scFv: SMAEVQLVESGGGVVQPGRSLRLSCAASGFTFSDYPMNWVRQAPGKGLEWVSSISGSGGSTYYADSVKGRFTISRDNSKNTLYLQMNSLRAEDTAVYYCAKGLFMVTTYAFDYWGQGTLVTVLEGTGGSGGTGSGTGTSELTQSPSSLSASVGDRVTIT[about 80 residues left out here]FGQGTKVEIKRAAA
B3: SC03-007 (scFv)
scFv: SMAEVQLVESGGGLVQPRGSLRLSCAASGFTFSDYRMNWVRQAPGKGLERVAVISYDGSNKYYADSVKGRFTISRDNSKNTLYLQMNSLRAEDTAVYYCARGYWTSLTGFDYWGQGTLVTVLEGTGGSGGTGSGTGTSELTQSPSSLSASVGDRVTIT[about 80 residues left out here]FGQGTKVEIKRAAA
B4: SC03-010 (scFv)
scFv: SMAEVQLVESGGGVVQPGRSLRLSCATSGFTFSGYTMHWVRQAPGKGLEWVSSISGGSTYYADSRKGRFTISRDNSKNTLYLQMNNLRAEDTAVYYCAKGGGLPYLSFDYWGQGTLVTVLEGTGGSGGTGSGTGTSELTQSPSSLSASVGDRVTIT[about 80 residues left out here]FGQGTKVEIKRAAA

The binders below were run against SARS-CoV preparation (Frankfurt 1 strain) (SARS-CoV strain Frankfurt 1).

In order of falling OD492nm:
1. B1  0.917 OD492nm
2. B3  0.876 OD492nm
3. B2  0.76 OD492nm
4. B4  0.327 OD492nm
